# Assay results: PubChem BioAssay AID1345082 (National Center for Advancing Translational Sciences (NCATS), 2018)
# Screen size: about 94,000 compounds; about 4,000 (4.3%) were called active. The inconclusive results got no clear call from the source; some entries with a clear call stand among them for comparison. The call rests on the fitted dose curve; in most records, active means well fitted inhibition curve with a large enough effect; inconclusive means small, poorly fitted or top-dose-only effect; inactive means no such curve, though single readings can be large or run the other way. A potency beside an inconclusive call is a rough fit, not a confirmed value.
# Assay: Cytotoxic Profiling in NIH 3T3 Cell Line of Diverse Libraries Using Quantitative High-Throughput Screening; further: nearly all actives have a fitted effect of over 55% in size
# Conditions: NIH 3T3 viability, CellTiter-Glo ATP luminescence, 48-72 h; series mostly up to 96.7 µM
# Procedure, shortened: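 Cytotoxicity was measured by CellTiter-Glo ATP luminescence after 48 or 72 h compound exposure at 37 °C. Mouse NIH 3T3 fibroblasts were seeded at 400 cells/well and dosed by 23 nL pin transfer.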
# Potency means the concentration at half of the fitted maximal effect; tags describe the fitted curve by direction and shape.
row,SMILES,Potency
1,CN1CCC(NC(=O)C2CCC(=O)N(Cc3cccc(C(F)(F)F)c3)C2)CC1 (stereo not given),inactive
2,Cn1ncc2c(C(=O)Nc3ccccc3Cl)cc(-c3cccc(F)c3)nc21,inactive
3,COc1ccc(C(=O)N2CCOc3ccc(CCC(N)=O)cc3C2)cc1F,inactive
4,O=c1n(-c2ccc([N+](=O)[O-])cc2)nc2n1CCN(Cc1ccc(C(F)(F)F)cc1)C2,"inconclusive: 44.7 µM [inhibitor, partial curve, poor fit]"
5,COc1cncc(NC(=O)C2=NO[C@@H]3CN(Cc4ccc(F)c(Cl)c4)C[C@H]23)c1,"inconclusive: 70.8 µM [inhibitor, partial curve, poor fit]"
6,COc1cccc(CN2CCNc3cc(-c4ccccc4)ncc3C2)c1,"inconclusive: 35.5 µM [inhibitor, partial curve, poor fit]"
7,Cc1nc(-c2c3n(c(=O)n(Cc4ccc(F)c(F)c4)c2=O)CCCCC3)no1,inactive
8,O=C(c1ccc(F)c(F)c1)N1CCN(c2cc(-c3ccc(Cl)cc3)[nH]n2)CC1,active: 35.5 µM
9,Cc1cccc(C(=O)N[C@@H]2CN(C3CCOCC3)C[C@H]2CN(C)C)c1,inactive
10,CSc1ccc(-c2cccc(C(=O)NCC(=O)NCc3ccccc3F)c2)cc1,inactive
11,COc1cccc(Nc2ncc3c(n2)C(C)(C(=O)NCc2ccc4c(c2)OCO4)CC3)c1 (stereo not given),"inconclusive: 56.2 µM [inhibitor, partial curve, poor fit]"
12,Cc1nn2c(c1-c1ccccc1OCc1ccccc1)N(C(=O)C(C)C)CCC2,active: 89.1 µM
13,N#Cc1ccc(C(=O)Nc2ccc(-c3nnc4n3CCCC4)cc2)cc1,inactive
14,Cc1ncsc1CN1CCC(N2CC3(CCCCC3)C2c2ccccc2)CC1 (stereo not given),"inconclusive: 50.1 µM [inhibitor, partial curve, poor fit]"
15,COc1ccccc1CN1Cc2cc(NC(=O)Cc3ccc(F)cc3)ccc2OC(C)C1=O (stereo not given),"inconclusive: 39.8 µM [inhibitor, partial curve, poor fit]"
16,Cc1ccc(Nc2ccnc(N3CCC(NC(=O)N(C)C)CC3)n2)cc1,active: 44.7 µM
17,Cn1ncc2c(C(=O)NCc3ccncc3)cc(-c3ccc(F)cc3)nc21,"inconclusive: 39.8 µM [inhibitor, partial curve, poor fit]"
18,Cc1nc(-c2c3n(c(=O)n(CC(=O)NCc4ccc(F)cc4)c2=O)CCCC3)no1,"inconclusive: 11.2 µM [inhibitor, partial curve, poor fit]"
19,O=C(Cc1cccn1-c1cccc(Cl)c1)NCCCN1CCCC1,inactive
20,COc1cccc(C(=O)N2CCC(N3C[C@H](O)C[C@H]3C(=O)NCc3ccc(C)cc3)CC2)c1,inactive
